Experimental findings from ChEMBL document CHEMBL4888484, “Replenishing the malaria drug discovery pipeline: Screening and hit evaluation of the MMV Hit Generation Library 1 (HGL1) against asexual blood stage Plasmodium falciparum ,using a nano luciferase reporter read-out” (2022) are described below.

Hit rate of the full screen: of about 150,000 compounds, about 540 (0.36%) showed an effect of 50% or more. The list shows a part of the results.

As usually defined, the % Inhibition is the relative decrease from the control value, in per cent.

This assay deals with Plasmodium falciparum. Kind of assay: Primary screen in NF54 nanoGlo assay, in single point, at 2uM, 72h; a lower Z score goes with more inhibition. In kind it is functional, Erythrocyte. The following applies: timepoint 72 hour.
With `CC(C)c1ncc(NC(=O)c2ccc(S(C)(=O)=O)cc2)cn1`, the “% Inhibition” value is reported as -12% and the Z score worked out at 1.95.
The like results for `O=C(N[C@H]1CCN2C(=O)c3ccc(Cl)cc3NC(=O)[C@H]12)c1cccc(F)c1` were, in that order, 8% and -1.09.
`CCCC[C@H](N)C(=O)N(C)Cc1ncc(Cl)n1C`: the “% Inhibition” value is -1% and the Z score is reported as 0.08.
The like results for `Cc1nnc(NC(=O)CN(C)S(=O)(=O)c2ccc(Br)cc2)s1` were, in that order, 9% and -0.98.
The like results for `Fc1ccc(Cc2nnc3sc(C4CCCCC4)nn23)cc1` were, in that order, 1% and -0.12.
The like results for `Cc1cc(O)nc(C(C)N2CCOC(c3nc(C)cs3)C2)n1` (stereo unspecified) were, in that order, -6% and 0.89.
With `O=C1NC2(CCCCC2)C(=O)N1Cc1nc(-c2ccc(Cl)cc2)no1`, the “% Inhibition” value was found to be 30% and the Z score is on record as -3.03.
The like results for `CCN1CCN(CC(=O)N2CCCc3ccccc32)CC1` were, in that order, 2% and -0.24.
The like results for `O=C(Nc1ccc(Cl)cc1Cl)c1ccc(C(=O)Nc2ccc(Cl)cc2Cl)s1` were, in that order, -3% and 0.3.
As for `O=C(CCCc1nnc(C(=O)Nc2cccc(Cl)c2)s1)NCCN1CCOCC1`, the “% Inhibition” value is recorded as -6% and the Z score stood at 0.83.
The like results for `O=C(Nc1ccsc1)N[C@H]1C[C@H]2C(=O)NC[C@@H](CCC(=O)N3CCCC3)N2C1` were, in that order, -13% and 1.65.
The like results for `N#Cc1ccc(N2C[C@H]3CC[C@@H](C2)N(CC2CC2)C3=O)nc1` were, in that order, 0% and 0.04.
The like results for `Cc1cnc(CN[C@H](c2ccc(F)c(Cl)c2)C2CC2)o1` were, in that order, -9% and 1.78.
For `CCN(C)C(=O)[C@H]1C[C@@](C)(C(=O)O)N(C)[C@H]1c1ccccc1`, the “% Inhibition” value worked out at 4% and the Z score is -0.9.
Regarding `COCCC(=O)N1CCC2(CC1)N(Cc1cccc(F)c1)C(=O)C[S@+]2[O-]`, the “% Inhibition” value amounted to 2% and the Z score was -0.4.
The like results for `CN1CCC(n2nccc2NC(=O)c2nn(C)c(=O)c3ccccc23)CC1` were, in that order, -14% and 2.55.
Take `COc1cc(C)c(-c2ccc(C(=O)N(C)C[C@H]3CC(=O)N(C)C3)cc2)cc1C`: the “% Inhibition” value is on record as -2% and the Z score was 0.24.
As to `O=C(c1ccccc1Oc1ccccc1)N1CC2CCC(O)CC2C1` (stereo unspecified), the “% Inhibition” value is on record as 16% and the Z score is -2.08.
The like results for `COc1ccc(-c2nn(CN3CC(C)OC(C)C3)c(=S)o2)cc1OC` (stereo unspecified) were, in that order, -3% and 0.67.
The like results for `Cc1nc2cc(NC(=O)[C@@]3(C)CCCN(C(=O)c4ccccc4)C3)ccc2o1` were, in that order, 55% and -8.5.
Regarding `CCCCOCC(=O)N(C)CCN(C)C1CC1`, the “% Inhibition” value is 1% and the Z score is -0.13.
The like results for `CN(CC(=O)N1CCCC1)C[C@H](O)COCc1ccc2c(c1)OCO2` were, in that order, -13% and 1.3.
The like results for `CN(C)c1cccc(S(=O)(=O)Nc2cc(C(C)(C)C)no2)c1` were, in that order, 2% and -0.25.
The like results for `Cc1nc(C2=C(O)CN(CCC(c3ccccc3)c3ccccc3)C2=N)sc1C` were, in that order, -3% and 0.32.
With `Cn1ncc2cc(S(=O)(=O)N[C@@H]3COc4ccccc4C3)cnc21`, the “% Inhibition” value came to 4% and the Z score was -0.72.
The like results for `C[C@H](Nc1cccc(C(=O)NCc2ccccn2)c1)C1CC(F)(F)C1` were, in that order, 6% and -1.09.
As for `Cc1nnc2n1CCN(C(=O)c1ccc3c(c1)OCCO3)C2`, the “% Inhibition” value came out at 1% and the Z score was -0.14.
The like results for `Cc1cccc(OCc2nc(C3CC3)n[nH]2)c1` were, in that order, -10% and 1.48.
The like results for `CN(C)[C@H]1CCN(CC(=O)N2CC(OCc3cccc(F)c3)C2)C1` were, in that order, -16% and 3.12.
As to `Fc1ccc(F)c(CN2CCN(Cc3ccno3)CC2)c1`, the “% Inhibition” value came to 4% and the Z score is -0.62.
With `O=C(Nc1ccc2oc(-c3cccnc3)nc2c1)c1cc2ccccc2o1`, the “% Inhibition” value is recorded as -10% and the Z score turned out to be 1.83.
As for `CN(C)Cc1noc(-c2ccccc2Oc2ccccc2)n1`, the “% Inhibition” value is -6% and the Z score is listed as 0.8.
The like results for `O=C(NC[C@H]1CCCO1)C1CCN(S(=O)(=O)c2ccc3c(c2)CCCN3C(=O)C2CCC2)CC1` were, in that order, -14% and 2.65.
For `C[C@@H](C(=O)NCCN1C(=O)CCCC1=O)c1cccs1`, the “% Inhibition” value is -4% and the Z score was 0.45.
As for `COC[C@H]1CCCN1[C@@H]1[C@H](O)[C@H](CO)O[C@@H]1CNC(=O)c1ccccc1`, the “% Inhibition” value is -2% and the Z score was 0.3.
The like results for `CC(C)(C)OC(=O)NC1(C(=O)O)CC(c2ccccc2)C1` (stereo unspecified) were, in that order, -16% and 2.02.
The like results for `COc1cccc(-c2ccc(N3CCCN(C(=O)CN(C(=O)C4CCC4)C4CC4)CC3)nn2)c1` were, in that order, -17% and 1.49.
For the compound `CC(C)CCn1cccc1CNCC1CCOC1c1cnn(C)c1` (stereo unspecified), the “% Inhibition” value was -11% and the Z score is 0.94.
On to `CN(Cc1cccc(N(C)C)c1)Cc1csc(-c2ccoc2)n1`, for which the “% Inhibition” value is recorded as -5% and the Z score was 0.54.
The like results for `COC(=O)c1ccc(Nc2ccc3[nH]c(C)cc3c2)nn1` were, in that order, 10% and -1.44.
For `CC(=O)N[C@H]1CCN(C(=O)c2ccc(-c3cc(O)c(F)c(F)c3)cc2)C1`, the “% Inhibition” value was 12% and the Z score is -1.64.
On to `Cc1n[nH]c(C)c1S(=O)(=O)Nc1cccc2cccnc12`, for which the “% Inhibition” value was -2% and the Z score was 0.25.
The like results for `C[C@@H]1CN(C(=O)c2ccc(C(F)(F)F)nc2)C[C@H](C)N1C` were, in that order, -5% and 0.75.
For `CCCn1cc(Cn2cnc3cnccc3c2=O)cn1`, the “% Inhibition” value is -14% and the Z score is recorded as 2.26.
The like results for `Cc1cc(CN(C)C(=O)[C@H]2CC(=O)N(c3ccccc3)C2)no1` were, in that order, -3% and 0.62.
The like results for `COc1ccccc1CCNC(=O)c1cc(Cc2ccccc2Cl)no1` were, in that order, -4% and 0.84.
The like results for `Cc1[nH][nH]c(=O)c1[C@H](CC(N)=O)c1cccc2cccnc12` were, in that order, -11% and 1.4.
In the case of `CCCn1nccc1S(=O)(=O)NCCN1CCCC[C@@H]1CO`, the “% Inhibition” value is -15% and the Z score is listed as 1.78.
The like results for `Cc1[nH]nc(-c2ccc(S(=O)(=O)Nc3ccccc3)s2)c1C` were, in that order, -5% and 0.61.
Regarding `Cn1c(=O)ccc2ccc(NCc3ccncc3)cc21`, the “% Inhibition” value was -3% and the Z score stood at 0.57.
The like results for `COc1ccnc(C(=O)N(C)Cc2cscn2)c1` were, in that order, -11% and 1.5.
For `CN(Cc1ccncc1)Cc1ccc(C#N)o1`, the “% Inhibition” value was -3% and the Z score was determined as 0.35.
The like results for `Cc1ccc(Nc2nc(C(=O)NC3CCCC3)cs2)c(C)c1` were, in that order, 1% and -0.13.
Turning to `COc1ccccc1C1=NS(=O)(=O)N(C)C(C(=O)N2CCCc3ccccc32)=C1`, the “% Inhibition” value is -10% and the Z score is listed as 1.86.
For the compound `Cc1noc(C)c1Cc1ccc(C(=O)N2CC3(C[C@H](CC(=O)N4CCOCC4)CO3)C2)o1`, the “% Inhibition” value worked out at 4% and the Z score is -0.55.
The like results for `Cc1cnc(C(=O)NC2C[C@H]3CC[C@@H](C2)N3S(=O)(=O)c2ccccc2)cn1` (stereo partly specified) were, in that order, -7% and 1.38.
With `CN1CCN(c2ncccc2CNC(=O)NC2(C)Cc3ccccc3C2)CC1`, the “% Inhibition” value is 10% and the Z score is -1.23.
The like results for `CCOc1ccc(NC(=O)CCc2c(C)nn(-c3nc(C)cc(=O)[nH]3)c2C)cc1` were, in that order, 4% and -0.72.
The like results for `CCN1C[C@@H](n2cc(COCc3ccccc3)nn2)CC1=O` were, in that order, -14% and 1.2.
The like results for `C[C@H]1C(=O)NCCN1C(=O)c1coc(COc2cccc(C(F)(F)F)c2)n1` were, in that order, -8% and 1.3.
As for `N#Cc1cnc(N(CC(=O)N2CCCC2)C[C@H]2CCCO2)c(Cl)c1`, the “% Inhibition” value worked out at 1% and the Z score is recorded as -0.1.
The like results for `CO[C@@]1(C(=O)NCc2c(Cl)cccc2-n2ccnc2)CCOC1` were, in that order, -5% and 0.72.
The like results for `Cn1cc(Br)c(C(=O)NCCn2cccn2)cc1=O` were, in that order, -8% and 1.16.
The like results for `O=C(CCC1CCCC1)N1CCN2CCS(=O)(=O)N(C3CC3)C(=O)[C@@H]2C1` were, in that order, -9% and 1.52.
Regarding `Cc1ccc(C(=O)N2CCC[C@]3(C4=CCOCC4)COCC[C@@H]23)c(O)c1`, the “% Inhibition” value is listed as -3% and the Z score is 0.59.
As to `Cc1nc2ccc(NC(=O)N3CCCS(=O)(=O)C[C@@H]3C)cn2n1`, the “% Inhibition” value was -9% and the Z score turned out to be 1.09.
The like results for `Cc1ccc(F)c(N2CC[C@@H](C(=O)Nc3ccc(C(F)(F)F)cc3)C2=O)c1` were, in that order, -9% and 1.34.
The like results for `COc1ccc(S(=O)(=O)N(CCc2ccccc2)c2ccccc2)cc1[C@@]1(C)NC(=O)NC1=O` were, in that order, -32% and 4.28.
The like results for `O=C1CNc2ncc(Br)cc2N1` were, in that order, -6% and 0.92.
On to `O=C(N[C@H]1CN(C(=O)COc2ccccc2)C[C@@H]1C1CC1)c1cnccn1`, for which the “% Inhibition” value is reported as -14% and the Z score was found to be 2.07.
The like results for `CN1CCN(c2nc(N3CCCCC3)nc3c2CN(C(=O)COc2ccccc2)CC3)CC1` were, in that order, 0% and 0.02.
`CCn1nc(C(=O)N2C[C@@H]3CC[C@H]2CN(CCCc2ccccc2)C3)cc1C`: the “% Inhibition” value is listed as -11% and the Z score worked out at 2.12.
The like results for `CS(=O)(=O)Cc1nc(-c2ccc3[nH]c(=O)[nH]c3c2)cs1` were, in that order, 4% and -0.68.
The like results for `Cc1nc2ccccc2n1C(=O)COc1ccc(Cl)cc1` were, in that order, -1% and 0.09.
The like results for `CC(=O)OC1CS(=O)(=O)CC1N(C(C)=O)c1ccc(Cl)cc1` (stereo unspecified) were, in that order, 4% and -0.59.
As to `O=C(C[C@@H]1C=CCC1)N1CCCCCCC1`, the “% Inhibition” value is listed as 6% and the Z score is -0.81.
As to `C=CCN(CC=C)C(=O)c1ccc(OCC)c(OCC)c1`, the “% Inhibition” value is -6% and the Z score is 0.67.
For `Cc1cc(C)c(CN(C)C2C3CCOC3C2(C)C)c(C)c1` (stereo unspecified), the “% Inhibition” value was -9% and the Z score worked out at 1.19.
The like results for `CCOC(=O)c1c(C)n[nH]c1NCc1ccccc1` were, in that order, 4% and -0.48.
For the compound `COc1ccc(F)c(CN2CCC[C@@]3(CCN(CCn4cc(Cl)cn4)C3)C2)c1`, the “% Inhibition” value worked out at 6% and the Z score is reported as -0.59.
Consider `Cn1nc(C(=O)NCc2n[nH]c3c2CCC3)c2ccccc2c1=O`, for which the “% Inhibition” value was -8% and the Z score was found to be 1.56.
Take `COc1ccc(S(=O)(=O)N(Cc2ccco2)Cc2c(-c3ccccc3)nn(C)c2Oc2ccccc2)cc1`: the “% Inhibition” value is given as -1% and the Z score turned out to be 0.19.
The like results for `Cc1onc(NS(=O)(=O)c2cccc3c2OCCC3)c1Cl` were, in that order, -7% and 1.53.
